# Reference: PubChem BioAssay AID1345083 (National Center for Advancing Translational Sciences (NCATS), 2018)
# Where “and” joins values, the source holds several entries; their conditions need not be identical. Identical values can stand only once. Among all 94,000 compounds or so, about 6,200 (6.6%) were called active. This list was built around the results that the source calls inconclusive (neither active nor inactive); the mix of calls is not that of the screen. Calls come from the whole dose curve; as a rule, active = well fitted inhibition curve with a large enough effect; inconclusive = small, poorly fitted or top-dose-only effect; inactive = flat fitted curve, though single readings scatter. Potencies beside an inconclusive call are fits to weak or partial responses and may not hold up.
# Assay: Cytotoxic Profiling in HEK 293 Cell Line of Diverse Libraries Using Quantitative High-Throughput Screening; note: nearly all actives have a fitted effect of over 60% in size
# Details: HEK 293 viability, ATP luminescence (CellTiter-Glo), 48-72 h; series mostly up to 115 µM
# How it was run: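 HEK 293 cells at 250 cells/well were exposed to compounds by pintool transfer for 48 or 72 hr at 37 degree Celsius, 5% CO2. Viability was read as ATP-coupled luminescence with CellTiter-Glo after 10 min at room temperature.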
# Potency is the fitted concentration of half-maximal effect; tags give direction and shape of the fitted curve.
row,Structure (SMILES),Potency
1,CCn1nc(C)c(CN2C[C@@H](COC)[C@H](c3ccncc3)C2)c1C,"inconclusive: 100 µM [inhibitor, single point]"
2,COc1ccc(-c2nc3ncccc3[nH]2)cc1,active: 112 µM and active: 79.4 µM
3,COc1ccc(C(=O)N2CCN(C(=O)c3cccc(-c4ccccc4OC)c3)CC2)cc1,"inconclusive: 50.1 µM [inhibitor, partial curve, poor fit]"
4,CC(C)c1noc(-c2cn(C3CCN(C(=O)c4cccc(Cl)c4)C3)nn2)n1 (configuration not stated),"inconclusive: 50.1 µM [inhibitor, partial curve, poor fit]"
5,COc1ncccc1-c1ccc2onc(C)c2n1,"inconclusive: 141 µM [inhibitor, single point]"
6,COc1cccc(C(=O)N2CCc3nc(-c4ccc(Cl)cc4)nc(-c4ccccc4)c3C2)c1,"inconclusive: 22.4 µM [inhibitor, full curve, poor fit]"
7,Cc1nnc2ccc(N3CCC(NC(=O)C(C)C)CC3)nn12,inactive
8,Cc1cccnc1CNC[C@H]1Cn2cc(-c3ccccc3)nc2CO1,"inconclusive: 70.8 µM [inhibitor, partial curve]"
9,Cc1cccc(NC(=O)Cn2c(N3CCC(C)CC3)nc(C)cc2=O)c1,"inconclusive: 50.1 µM [inhibitor, partial curve, poor fit]"
10,Cc1cccc(C(=O)N2CCCC(c3nc(C4CCOCC4)no3)C2)c1 (configuration not stated),inactive
11,COc1ccc2ccc(OCc3nc(C(=O)NCc4cnc(C)cn4)co3)cc2c1,"inconclusive: 39.8 µM [inhibitor, partial curve, poor fit]"
12,O=C(NC1CCCC1)N1CCCC(C(=O)N2CCCC(c3nc4ccncc4[nH]3)C2)C1 (configuration not stated),inactive
13,Cc1ccc(NC(=O)N2CCc3c(C(=O)NCCCN4CCCC4=O)cccc32)cc1,active: 44.7 µM
14,CCOc1ccccc1C(=O)N1CCC2(CC1)NC(=O)N(c1ccccc1)N2,"inconclusive: 31.6 µM [inhibitor, partial curve, poor fit]"
15,Cc1nc(CN2CC3(CCN(C)C3)c3cc(C(=O)NCC4CC4)ccc32)cs1 (configuration not stated),inactive
16,CC(C)(C)OCC1CN(Cc2cccc(F)c2)[S+](=O)([O-])c2cnccc2O1 (configuration not stated),"inconclusive: 11.2 µM [inhibitor, partial curve, poor fit]"
17,COc1ccc(CNC(=O)N2CCC(c3noc(-c4ccncc4)n3)C2)cc1 (configuration not stated),"inconclusive: 17.8 µM [inhibitor, partial curve, poor fit]"
18,O=C(O)CN1CCCc2nc(-c3ccccc3)ncc2C1=O,inactive
19,CCN1c2cc(C(=O)N3CCN(c4ccccn4)CC3)ccc2C(=O)N2CCCCC21 (configuration not stated),"inconclusive: 79.4 µM [inhibitor, single point]"
20,O=C(Nc1cccn2nc(C3CCC3)nc12)c1ccc(F)cc1Cl,"inconclusive: 50.1 µM [inhibitor, partial curve, poor fit]"
21,N#Cc1ccc(N2CCN(C(=O)CNC(N)=O)CC2=O)cc1,"inconclusive: 22.4 µM [inhibitor, partial curve, poor fit]"

row,Structure (SMILES),Potency
1,COc1cccc(-c2cccc(C(=O)N3CCN(C(=O)Cc4ccc(F)cc4)CC3)c2)c1,"inconclusive: 79.4 µM [inhibitor, partial curve, poor fit]"
2,CCc1cccc(NC(=O)CN2C(=O)NC3(CCC(C)CC3)C2=O)c1 (configuration not stated),"inconclusive: 44.7 µM [inhibitor, partial curve, poor fit]"
3,Cc1cc(N2CCC(c3nccn3Cc3ccccn3)CC2)nc2ccccc12,"inconclusive: 56.2 µM [inhibitor, partial curve, poor fit]"
4,CCCCNC(=O)N1CC(C(=O)N2CCCC(C(=O)OCC)C2)CC(c2ccc(F)c(C)c2)C1 (configuration not stated),"inconclusive: 50.1 µM [inhibitor, partial curve, poor fit]"
5,COc1ccc(-c2nc(C3CC3)nc3c2CCN(C(=O)c2ccccc2)CC3)cc1,"inactive and inconclusive: 89.1 µM [inhibitor, single point]"
6,O=C(NC1CCCN(CCc2ccccc2)C1)C1(Cn2cccn2)CC1 (configuration not stated),inactive
7,O=C(COc1ccc(-c2nnc3n2CCCC3)cc1)NCc1ccccc1Br,"inconclusive: 100 µM [inhibitor, single point]"
8,Cc1noc(C)c1-c1cc2c(c(-c3cccc(OC(C)C)c3)c1)C(=O)N(C)C2,"inconclusive: 8.91 µM [inhibitor, full curve, poor fit]"
9,Cc1cccc(CN2CCc3nc(C(=O)NCc4ccccc4)oc3CC2)c1,"inconclusive: 79.4 µM [inhibitor, partial curve, poor fit]"
10,NC(=O)COC[C@@H]1CN(Cc2ccccc2)C[C@H]1c1ccncc1,"inconclusive: 50.1 µM [inhibitor, partial curve, poor fit]"
11,COc1nc(C)c(C(=O)N2CCn3nc(CO)cc3C2)s1,inactive
12,CC(C)CN1C(=O)COC[C@@H]1[C@H](O)c1ccc(NC(=O)Cc2ccccc2)cc1,inactive
13,COc1ccc(CN2CC3(CCN(S(=O)(=O)c4c(C)nn(C)c4C)CC3)C2=O)cc1,inactive
14,Cc1cccc(OCCc2noc(C3CN(C(=O)Cn4ccnc4)C3)n2)c1,"inconclusive: 50.1 µM [inhibitor, partial curve, poor fit]"
15,O=C(CCCc1ccccc1)N1CCC2(CC1)CC(Cc1nc(C3CC3)no1)CCO2 (configuration not stated),"inconclusive: 39.8 µM [inhibitor, partial curve, poor fit]"
16,CC(C)C1=NOC2(CCN(CC3CC3)CC2)C1,inactive
17,Cc1cccc(CC(=O)N2CCc3c(nc4cc[nH]n4c3=O)C2)c1,"inconclusive: 89.1 µM [inhibitor, single point]"
18,CN1CCC([C@@H]2CN(S(=O)(=O)c3cccc(C#N)c3)C[C@H]2C(N)=O)CC1,inactive
19,O=C1NC(=NC2CCCC2)C2(CCN([S+](=O)([O-])c3cccs3)CC2)N1c1cccnc1,inactive
20,O=S(=O)(NCCc1noc(-c2ccncc2)n1)c1ccc(F)cc1,"inconclusive: 39.8 µM [inhibitor, partial curve, poor fit]"
21,Cc1cc(-c2ccnc(-c3nnc(C)n3-c3ccccc3)c2)ccn1,active: 44.7 µM

row,Structure (SMILES),Potency
1,O=C(CNC(=O)c1cnccn1)NC1CCCc2c1[nH]c1c(Cl)cccc21 (configuration not stated),"inconclusive: 79.4 µM [inhibitor, partial curve, poor fit]"
2,COCC1CN(C2CCC2)CC12CCN(C(=O)CCC1CCCC1)CC2 (configuration not stated),"inconclusive: 20 µM [inhibitor, partial curve, poor fit]"
3,C[C@@]1(c2ccccc2)CCCCN1C(=O)c1cnc2c(c1)N([S+](=O)([O-])c1cccnc1)CCC2,"inconclusive: 56.2 µM [inhibitor, partial curve, poor fit]"
4,C[C@@H]1C(=O)O[C@H]2[C@H]1CC[C@@]1(C)Cc3sc(NS(=O)(=O)c4ccc(Cl)cc4)nc3[C@@H](C)[C@H]21,"inconclusive: 50.1 µM [inhibitor, partial curve, poor fit]"
5,COc1ccc(CCc2nc3nccc(-c4ccc(F)cc4)n3n2)cc1OC,"inconclusive: 56.2 µM [inhibitor, partial curve, poor fit]"
6,CCOCCn1c(=O)[nH]c2cc(C(=O)NCc3noc(CC)n3)ccc21,inactive
7,COc1ccc(C(=O)N2CCC(N3C(=O)c4c(c(C)nn4-c4ccccc4)C3C(C)C)C2)cc1 (configuration not stated),"inconclusive: 31.6 µM [inhibitor, partial curve, poor fit]"
8,O=C(c1cccc(F)c1)N1CCOc2ccc(CN3CCc4ccccc4C3)cc2C1,"inconclusive: 44.7 µM [inhibitor, partial curve, poor fit]"
9,O=C(c1ccc(F)cc1Cl)N1CCC(n2cc(-c3nc(-c4ccccc4)no3)nn2)C1 (configuration not stated),"inconclusive: 28.2 µM [inhibitor, partial curve, poor fit]"
10,COc1ccc(C(=O)N2CC(C(=O)NCCc3ccccc3)CC(c3ccccc3)C2)cc1OC (configuration not stated),"inconclusive: 44.7 µM [inhibitor, partial curve, poor fit]"
11,COC(=O)[C@@H]1Cc2c([nH]c3ccccc23)[C@H]2C[C@@H](NCCCn3ccnc3)C[C@@H](c3ccccc3F)N21,"inconclusive: 22.4 µM [inhibitor, full curve, poor fit]"
12,CSc1ccc(-c2cccc(C(=O)NCC(=O)NCc3cccnc3)c2)cc1,active: 22.4 µM
13,O=C(NC1CCCCC1)c1c(-c2ccccc2)cc(=O)n2c1CCC2,inactive
14,COc1ccc([C@H]2C[C@@H](O)[C@@H](O)[C@@H]2NS(=O)(=O)c2ccc(C(F)(F)F)cc2)cc1,active: 100 µM
15,CCCN1CCC(N2C[C@@H](CO)[C@H](c3nc(COC)no3)C2)CC1,inactive
16,O=C(NC1CCN(c2cc(-c3cccs3)[nH]n2)C1)c1ccc(F)c(F)c1 (configuration not stated),"inconclusive: 31.6 µM [inhibitor, full curve, poor fit]"
17,CCCN1CCC2(CCN(C(=O)c3ccc(Cl)cc3)CC2)Oc2ccccc21,"inconclusive: 39.8 µM [inhibitor, full curve, poor fit]"
18,COC(=O)c1nc(NC(=O)Cn2nc3c(cc2=O)CCCC3)sc1C(C)C,"inconclusive: 70.8 µM [inhibitor, partial curve, poor fit]"
19,Cn1cc(CNC(=O)C[C@@H]2C[C@H]3O[C@H](CNCc4cnccc4C(F)(F)F)[C@@H](O)[C@H]3O2)cn1,inactive
20,Cc1cnn(CCC(=O)N2CCC3(CCOCC3)CC2)c1,"inconclusive: 28.2 µM [inhibitor, single point]"
